Results published in the supplement of paper PMC4604168 (melanoma cell lines).
The list shows a part of the results. Most values come without repeats; read them as rough.

What was measured:
Assay in all cases: cell count relative to DMSO control; melanoma cells; higher = more viable cells
Conditions in all cases: library dose: low library concentration; 72 h
WM115 = tested on: WM115
WM1716 = tested on: WM1716
WM1745 = tested on: WM1745
WM3526 = tested on: WM3526
WM3619 = tested on: WM3619
WM451Lu = tested on: WM451Lu
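Note: cell number obtained by counting DAPI-stained nuclei in high-throughput microscope images with image analysis software, screen run in 1,536-well plates.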

| SMILES | cell count (WM115) | cell count (WM1716) | cell count (WM1745) | cell count (WM3526) | cell count (WM3619) | cell count (WM451Lu) |
| --- | --- | --- | --- | --- | --- | --- |
| Cc1ccc(Nc2nccc(N(C)c3ccc4c(C)n(C)nc4c3)n2)cc1S(N)(=O)=O [Pazopanib] + Cc1cc(Nc2cc(N3CCN(C)CC3)nc(/C=C/c3ccccc3)n2)n[nH]1 [ENMD2076] (first compound 0.4 µM, partner dose 0.04 µM) | 90.2% | 86.3% | 106% | 85.5% | 74.9% | 90.6% |
| O=C(/C=C/c1cccnc1)NCCCCC1CCN(C(=O)c2ccccc2)CC1 + CS(=O)(=O)CCNCc1ccc(-c2ccc3ncnc(Nc4ccc(OCc5cccc(F)c5)c(Cl)c4)c3c2)o1 [lapatinib] (first compound 0.01 µM, partner dose 0.8 µM) | 93.7% | 105% | 125% | 89.3% | 89% | 75.1% |
| CC1(C)CCC(c2ccc(Cl)cc2)=C(CN2CCN(c3ccc(C(=O)NS(=O)(=O)c4ccc(N[C@H](CCN5CCOCC5)CSc5ccccc5)c(S(=O)(=O)C(F)(F)F)c4)cc3)CC2)C1 + Cn1cncc1[C@@](N)(c1ccc(Cl)cc1)c1ccc2c(c1)c(-c1cccc(Cl)c1)cc(=O)n2C [tipifarnib] (first compound 0.4 µM, partner dose 0.01 µM) | 64.8% | 48.2% | 11.3% | 76.1% | 60.2% | 68.7% |
| CC1(C)CCC(c2ccc(Cl)cc2)=C(CN2CCN(c3ccc(C(=O)NS(=O)(=O)c4ccc(N[C@H](CCN5CCOCC5)CSc5ccccc5)c(S(=O)(=O)C(F)(F)F)c4)cc3)CC2)C1 + Cn1nnc2c(C(N)=O)ncn2c1=O [temozolomide] (first compound 0.4 µM, partner dose 2 µM) | 81.1% | 63.1% | 9.47% | 93.3% | 74.1% | 80.6% |
